The full ranking holds about 110,000 compounds; the median of “z-score” is about -0.1, and the highest 2% start at about 2. Some of the results follow. Calls of active or inactive are those of the source.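 The calls were made as follows: active = z-score in the third read window above 3 or below -3; inactive = the rest.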

The values that follow come from PubChem BioAssay AID488969 (Vanderbilt High Throughput Screening Facility, 2010).

The target of this assay is Metabotropic glutamate receptor 8 (Rattus norvegicus) (UniProt P70579). As to the kind of experiment: mGluR8 Gi/Go-coupled signaling modulation – cell-based, rat, thallium flux, HTS, primary screen (AID 488969). As to conditions: HEK293 rat mGluR8, GIRK (G protein-gated inwardly rectifying potassium channel) thallium flux, FluoZin2; at 10 µM; stronger effect = higher value; submaximal glutamate (EC20) added with thallium.
Sequence of UniProt P70579 (P70579 whole entry, looked up): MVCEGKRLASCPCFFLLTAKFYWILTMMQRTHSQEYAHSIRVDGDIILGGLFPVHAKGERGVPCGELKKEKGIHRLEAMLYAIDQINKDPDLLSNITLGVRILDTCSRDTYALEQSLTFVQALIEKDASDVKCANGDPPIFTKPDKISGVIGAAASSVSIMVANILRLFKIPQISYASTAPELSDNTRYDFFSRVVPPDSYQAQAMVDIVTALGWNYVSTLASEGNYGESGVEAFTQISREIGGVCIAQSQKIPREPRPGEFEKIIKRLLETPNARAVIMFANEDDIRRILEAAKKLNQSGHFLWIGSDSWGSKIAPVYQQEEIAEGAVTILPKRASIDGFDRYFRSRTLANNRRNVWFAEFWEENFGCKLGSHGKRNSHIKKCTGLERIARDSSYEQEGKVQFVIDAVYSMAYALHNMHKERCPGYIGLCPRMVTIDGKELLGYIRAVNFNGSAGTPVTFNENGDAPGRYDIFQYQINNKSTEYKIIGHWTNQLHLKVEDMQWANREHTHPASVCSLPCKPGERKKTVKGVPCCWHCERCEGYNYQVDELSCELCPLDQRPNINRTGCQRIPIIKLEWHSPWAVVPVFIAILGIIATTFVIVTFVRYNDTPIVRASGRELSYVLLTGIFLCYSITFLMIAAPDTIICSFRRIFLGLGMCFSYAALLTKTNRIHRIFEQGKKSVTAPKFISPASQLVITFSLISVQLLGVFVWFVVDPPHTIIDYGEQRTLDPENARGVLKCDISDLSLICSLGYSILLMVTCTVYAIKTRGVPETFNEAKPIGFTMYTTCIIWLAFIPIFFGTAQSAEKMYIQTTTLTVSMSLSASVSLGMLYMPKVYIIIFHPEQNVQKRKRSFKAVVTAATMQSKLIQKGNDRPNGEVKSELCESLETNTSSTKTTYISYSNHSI
Regarding `COc1ccc(NC(=O)CSc2nnc(-c3ccccn3)n2Cc2ccco2)cc1OC`, the z-score was active: 5.76.

Compound `Cc1cc(C)c(OCC(=O)OCCNC(=O)c2cccnc2)c(C)c1` showed a z-score of -0.105.

Turning to `COc1ccc(OC)c(-c2cc(C(=O)N3CCN(c4ccccc4)CC3)no2)c1`, the z-score came to 0.014.

Compound `NC(=O)C1CCN(C(=O)c2ccc(C(F)(F)F)cc2)CC1` displayed a z-score of -0.111.

`COc1cc(C)c(S(=O)(=O)N2CCN=C2c2ccccc2)cc1C` gave a z-score of -0.0711.

Compound `Nn1c(COc2ccccc2)nc2ccccc2c1=O` showed a z-score of -0.368.

`Brc1ccccc1Cn1c(-c2cscn2)nc2ccccc21` showed a z-score of -0.656.

As for `Cc1ccc(S(=O)(=O)N2CCC(C(=O)N[C@H](C(=O)NCc3ccco3)C(C)C)CC2)cc1`, the z-score was -0.0498.

`CC(O)c1nc2ccccc2n1Cc1nnc(-c2ccc(Cl)cc2)o1` (centres undefined) displayed a z-score of -0.51.

The compound `Cc1ccc(NC(=O)CN(C)C(=O)/C=C/c2cccs2)cc1` displayed a z-score of -0.137.

Compound `CN1C(=O)/C(=C2/C=Cc3ccccc3N2CCCS(=O)(=O)O)SC1=S` came in with a z-score of 1.32.

Compound `CCOC(=O)c1cnc2sccn2c1=O` gave a z-score of -0.0404.

Regarding `COc1ccc(C2CC(=O)c3cnc(N4CCN(Cc5ccccc5)CC4)nc3C2)cc1` (centres undefined), the z-score is -0.543.

Compound `COC(=O)c1c(NC(=O)CC2SC(N)=NC2=O)sc2c1CCC(C)C2` (centres undefined) yielded a z-score of -0.0667.

The compound `CCOC(=O)C(C(=O)NCC1CCCO1)C1CCCCC1` (centres undefined) came in with a z-score of 0.0731.

`Cc1ccc(S(=O)(=O)n2ccnc2)cc1C` yielded a z-score of 0.438.

Compound `Cc1ccc(NC(=O)CCC(=O)c2cccs2)cc1` came in with a z-score of 0.186.

`O=C(/C=C/c1ccc(S(=O)(=O)N2CCOCC2)cc1)NCc1ccccc1Cl` yielded a z-score of 0.0451.

`Cc1ccc(NC(=S)NC(NC(=O)c2ccccc2)C(Cl)(Cl)Cl)c(C)c1` (centres undefined) displayed a z-score of 0.0523.

In turn, `Cc1[nH]n(-c2ccccc2)c(=O)c1C=Nc1cnc2ccccc2c1` returned a z-score of 0.416.

Compound `O=C(NCc1ccc(Cl)cc1)c1ccc(Cl)cc1[N+](=O)[O-]` yielded a z-score of -0.393.

Compound `COc1cccc(C2C(C(=O)OCc3ccccc3)=C(C)Nc3ncnn32)c1OC` (centres undefined) yielded a z-score of -0.854.

In turn, `Cn1nnnc1SCC(=O)NCc1ccco1` came in with a z-score of 0.275.

`O=C(CSc1ccccc1)Nc1ccccc1N1CCOCC1` displayed a z-score of -0.457.

In the case of `OCCN(CCO)CC(O)Cn1c2ccccc2c2ccccc21` (centres undefined), the z-score is -0.258.

`O=C(NC(=S)N1CCCCCC1)C1CC1` returned a z-score of 0.000532.

The compound `COc1ccc(OC)c(NC(=O)Cn2c(=O)n(CC(=O)NCc3ccco3)c(=O)c3ccccc32)c1` yielded a z-score of -0.0938.

Compound `COc1cc(S(=O)(=O)N2CCCCC2)ccc1NC=O` displayed a z-score of -0.951.

`c1ccc(-c2ccc(Oc3cc(N4CCOCC4)nc(-c4ccccc4)n3)cc2)cc1` came in with a z-score of -0.145.

On to `CCOC(=O)c1ccc(CC(=O)c2ccc(O)cc2O)o1`, for which the z-score was -0.000648.

Compound `Cn1c(C(=O)N2CCCC(C(=O)N3CCN(C(=O)c4ccco4)CC3)C2)cc2sccc21` (centres undefined) displayed a z-score of -0.103.

Regarding `Cc1ccc(NC(=O)CNc2ccc(OC(C)C)cc2)cc1`, the z-score was 0.0604.

In turn, `COc1ccc(/C=C/C(=O)Oc2cccc(/C=N/NC(=O)c3cccc(F)c3)c2)cc1` returned a z-score of -0.0588.

`CN1c2ccccc2C(C)(C)C12CC(CCl)=NO2` (centres undefined) came in with a z-score of -0.182.

Turning to `CC(C(=O)OCC(=O)c1cccc([N+](=O)[O-])c1)N1C(=O)C2C3CCC(C3)C2C1=O` (centres undefined), the z-score is 0.027.

For `Cc1ccc(N2C(=O)CC(Sc3ccccc3C(=O)O)C2=O)cc1` (centres undefined), the z-score is -0.218.

Consider `O=C(c1ccco1)N1CCN(S(=O)(=O)c2cccs2)CC1`, for which the z-score was determined as 0.337.

For `O=c1c(Cl)c(Nc2cccc(Cl)c2)cnn1-c1nc2ccccc2s1`, the z-score is -0.287.

Compound `N/C(=N\OC(=O)c1cccs1)c1ccccc1` returned a z-score of -0.0144.

`COc1cccc(C2=CC(c3ccc(N(C)C)cc3)n3nnnc3N2)c1` (centres undefined) had a z-score of -1.05.

For `CCOC(=O)CC(=O)CSc1nc(-c2cccnc2)cc(C)c1C#N`, the z-score is -0.14.

In turn, `CCOC(=O)N1CCN(S(=O)(=O)c2ccc(OC)c(OC)c2)CC1` had a z-score of 0.0307.

In turn, `Cc1nn(-c2ccccc2)c(N2CCCC2)c1/C=N/NC(=S)Nc1cc(C(F)(F)F)ccc1Cl` showed a z-score of 0.394.

Take `O=C(CCC(=O)Nc1ccccc1)NNC(=O)C(c1ccccc1)c1ccccc1`: the z-score came out at 0.336.

Compound `O=C(Nc1ccc(N=Nc2ccccc2)c(NC(=O)C2CCCO2)c1)C1CCCO1` (centres undefined) returned a z-score of -0.264.

In turn, `CCOCC(=O)Nc1cccc(NC(C)=O)c1` showed a z-score of -0.0753.

Regarding `O=c1[nH]c(SCc2ccc(F)cc2)nc2c1cnn2-c1ccc(F)cc1`, the z-score came out at 0.203.

The compound `Cc1c(C(=O)NCCCN2CCOCC2)sc2nc(-c3ccc(F)cc3)cn12` came in with a z-score of -0.691.

Compound `CCN(CC)S(=O)(=O)c1cc(C(=O)n2cccn2)c(Cl)cc1Cl` had a z-score of -2.33.

In the case of `CCOC(=O)c1ccc(N2C(=O)c3n[nH]c(C)c3C2c2ccccn2)cc1` (centres undefined), the z-score is -0.296.

The compound `c1ccc(Cn2c(Nn3cnnc3)nc3ccccc32)cc1` yielded a z-score of -0.451.

`CC(=O)SCCC(=O)Nc1ccccc1` came in with a z-score of 0.0793.

On to `CC(=O)Nc1ccc(NC(=O)Cn2c(-c3ccc(F)cc3)cnc2SCC(=O)Nc2c(C)cccc2C)cc1`, for which the z-score is -0.103.

The compound `COc1ccc(NC(=O)C(C)SCc2ccccc2)cc1OC` (centres undefined) returned a z-score of 5.74e-05.

Compound `Cc1nc(SCC(=O)c2cccs2)c2oc3ccccc3c2n1` had a z-score of 0.397.

`CCC1(C)Cc2c(C#N)c(N)n(-c3ccccc3)c(=O)c2CO1` (centres undefined) displayed a z-score of 0.181.

`Cc1cc(C)nc(/N=C(/NC(=O)c2ccccc2)Nc2ccccc2)n1` came in with a z-score of -0.181.

Compound `CCOC(=O)N1CCN(C(=O)C2CCCN(S(=O)(=O)c3ccccc3)C2)CC1` (centres undefined) registered a z-score of 0.145.

Take `Cc1ccc(C(=O)NNC(=O)Cc2ccccc2)cc1`: the z-score stood at 0.357.

The compound `COC(=O)c1ccc(OC)c(CSc2nnc(-c3ccc(C(C)(C)C)cc3)o2)c1` registered a z-score of -0.0694.

Compound `COc1ccc(-c2ccc(OC)cc2C(=O)O)cc1` yielded a z-score of -0.165.

As for `CC(C)(C)c1cc(NC(=O)COC(=O)c2ccc3c(=O)n4c(nc3c2)CCC4)n(-c2ccccc2)n1`, the z-score was -0.264.

For `Cc1cccc(OCC(=O)Nc2cc(C)ccc2O)c1`, the z-score was -0.0375.

On to `Cn1c(=O)[nH]c(=O)c2c1nc(SCCN1CCCCC1)n2Cc1ccccc1`, for which the z-score is 0.113.

`CCC(c1nnc(SCC(=O)N2CC3(C)CC2CC(C)(C)C3)o1)N(C)C` (centres undefined) gave a z-score of -0.157.

`CCOC(=O)C1CCCN(Cc2ccc(OCC)cc2)C1` (centres undefined): the z-score is -0.133.

`CC(=O)NC(CCS(C)(=O)=O)C(=O)Nc1cc(C)on1` (centres undefined) gave a z-score of -0.111.

The compound `CC1(C)C2([N+](=O)[O-])CN(CCO)CC1([N+](=O)[O-])CN(CCO)C2` returned a z-score of -0.161.

`COc1ccc(C(=O)Nc2cc3c(cc2C#N)OCO3)cc1S(=O)(=O)NCc1ccco1`: the z-score was 0.147.

`Cc1cccc2c1NC(=O)/C2=C\C(=O)c1cccs1` displayed a z-score of 0.0938.

In turn, `CS(=O)(=O)N(Cc1ccccc1)c1ccc(C(=O)Nc2cccnc2)cc1` gave a z-score of 0.0978.

The compound `Cn1nc(OC(=O)Nc2cccc(Cl)c2)cc1C(F)(F)F` came in with a z-score of 0.674.

Take `CCOC(=O)Cc1cnc(NC(=O)NC(C(=O)OCC)(c2ccccc2)C(F)(F)F)s1` (centres undefined): the z-score was -1.01.

Compound `Cc1cccc(OCC(=O)N2CCN(C(=O)Cc3ccccc3)CC2)c1` gave a z-score of 0.121.

`CCc1n[nH]c(=S)n1/N=C/c1ccc2c(c1)OCO2` showed a z-score of 0.512.

On to `CS(=O)(=O)N(CC(=O)N1CCN(c2ccccc2F)CC1)c1cccc(C(F)(F)F)c1`, for which the z-score was found to be 0.48.

Compound `c1ccc2c(-c3nc(-c4ccncc4)no3)cccc2c1` displayed a z-score of -0.386.

`COc1ccc(OCc2nn3c(-c4cccc(OC)c4)nnc3s2)cc1` gave a z-score of -0.159.

Compound `CC(C)N(C(=O)CSc1nc2ccccc2n1Cc1ccccc1F)C(C)C` had a z-score of -0.509.

`Cc1ccc(S(=O)(=O)N2CCC(C(=O)NCc3cccnc3)CC2)cc1` showed a z-score of -0.0997.

Compound `CCOC(=O)c1sc(SC)c(C(C)=O)c1C` had a z-score of -0.429.

Compound `Cc1cc(NC(=O)c2ccc(N3C(=O)CCC3=O)cc2)no1` registered a z-score of 0.412.

`COc1nc(Nc2ccc(C(C)C)cc2)nc(OC)n1` yielded a z-score of -0.553.

For `CCc1nnc(NS(=O)(=O)c2ccc(N/C=C\C(=O)c3ccc(C)cc3)cc2)s1`, the z-score is -0.133.

Regarding `Cc1cc(C)cc(Nc2cc(C)nc3nc(C)nn23)c1`, the z-score was found to be 0.398.

The compound `Cc1oc(/N=C/c2ccc3c(c2)OCO3)c(C#N)c1C` displayed a z-score of 1.4.

Take `CN(C)c1ccc(NS(=O)(=O)c2cc(Cl)ccc2Cl)cc1`: the z-score was -0.322.

Compound `Cc1sc(N/N=C/c2cccs2)nc1-c1ccccc1` came in with a z-score of 0.0575.

`O=S(=O)(Cc1ccc(Cl)cc1)c1ccccc1-c1nnc(-c2ccc(Cl)cc2)o1` returned a z-score of -0.0549.

In turn, `O=S(=O)(O)c1nc2ccccc2n1Cc1ccc(Cl)cc1Cl` returned a z-score of 0.25.

For `Cc1ccccc1C(=O)Nc1cc(S(=O)(=O)N2CCCCC2)ccc1N1CCN(C)CC1`, the z-score was 0.00679.

In the case of `CC1CCN(c2oc(-c3cccc4ccccc34)nc2C#N)CC1`, the z-score came to 0.305.

For `Cc1cc(NC(=O)c2cc(C)on2)no1`, the z-score was determined as 0.372.

In the case of `Cn1c(SCC(=O)NCc2ccc3c(c2)OCO3)nc2scc(-c3cccs3)c2c1=O`, the z-score is -0.911.

With `COc1ccc(CCNC(=O)C2CC(c3ccc([N+](=O)[O-])cc3)=NO2)cc1` (centres undefined), the z-score was -0.16.

`Cc1cc(C(=O)NC(C)c2ccc3c(c2)OCO3)cs1` (centres undefined): the z-score came to 0.0632.

Consider `CC(C)(C)C(=O)C(Cc1ccccc1)n1cncn1` (centres undefined), for which the z-score came to 0.606.

With `Cc1cc(C(=O)CN2C(=O)NC(C)(c3ccccc3)C2=O)c(C)n1CC1CCCO1` (centres undefined), the z-score was found to be 1.28.

As to `O=C(CN1CCN(c2ncc(C(F)(F)F)cc2Cl)CC1)NCCNc1ncc(C(F)(F)F)cc1Cl`, the z-score was -0.0224.

`Cc1ccc(N2C(=O)c3ccc(C(=O)NCCN4CCOCC4)cc3C2=O)cc1` gave a z-score of 0.0183.

In turn, `CCOc1ccc(NC(=O)CCN2CCN(S(=O)(=O)c3ccc(Cl)cc3)CC2)cc1` gave a z-score of -0.361.

On to `COc1ccccc1NC(=O)CN1C(=O)C(C)SC(C)C1=O` (centres undefined), for which the z-score was -0.296.

In turn, `CCOc1ccc(/C(O)=C2/C(=O)C(=O)N(c3nc(C)c(C)s3)C2c2ccco2)cc1` (centres undefined) came in with a z-score of -1.12.

Compound `CN(C)CCN1C(=O)C(=O)/C(=C(/O)c2ccc(OCc3ccccc3)cc2)C1c1ccncc1` (centres undefined) came in with a z-score of -0.382.

`COc1ccc(CNC(=O)c2ccc(SC)cc2OC)cc1` came in with a z-score of -0.295.

Take `O=C(NC1CCCCC1)n1c(=O)oc2cc(S(=O)(=O)N3CCCCC3)ccc21`: the z-score came to 0.357.

As to `COCCOC(=O)C1=C(C)NC2=C(C(=O)CC(C)(C)C2)C1c1ccc2c(c1)OCO2` (centres undefined), the z-score was -0.115.

`CCOC(=O)c1c(-n2cnnn2)sc(C)c1C` displayed a z-score of 0.69.

Turning to `O=C(C1CCCN(S(=O)(=O)c2cccs2)C1)N1CCc2ccccc2C1` (centres undefined), the z-score is -0.502.
